{"source": "PubChem BioAssay AID504832", "about": "(National Center for Advancing Translational Sciences (NCATS), 2011)", "note": "In all, about 310,000 compounds went through this assay and about 18,000 (5.8%) were called active. Inconclusive means that the source gave no clear call. Such entries were picked first, then a sample of the others. The call rests on the fitted dose curve; in most records, active means well fitted inhibition curve with a large enough effect; inconclusive means small, poorly fitted or top-dose-only effect, or another doubt; inactive means no such curve, though single readings can be large or run the other way. No potency is given beside an inconclusive call; the fits are too rough. Potency means the concentration at half of the fitted maximal effect; tags describe the fitted curve by direction and shape."}
{"test": "Primary qHTS for delayed death inhibitors of the malarial parasite plastid, 48 hour incubation", "conditions": "P. falciparum luciferase growth in erythrocytes; series mostly up to 28.7 µM", "in_short": "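Parasite viability was followed by luminescence of a genomically integrated firefly luciferase. Cultures held 0.1% parasitemia at 2% hematocrit (final), incubated under 5% CO2 at 37 C.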"}
{"smiles": "COc1ccc(-c2noc(CCCC(=O)NC3CCCCC3)n2)cc1", "Potency": "inactive"}
{"smiles": "CC(=O)c1ccc(S(=O)(=O)Nc2ccc(C(=O)NCC(c3cccs3)N3CCOCC3)cc2)cc1", "note": "(configuration not stated)", "Potency": "inconclusive [inhibitor, partial curve, poor fit]"}
{"smiles": "CCOc1ccccc1NC(=O)CN1c2cccc3cccc(c23)S1(=O)=O", "Potency": "inconclusive [inhibitor, single point]"}
{"smiles": "Cc1nn(-c2ccccc2)c(C)c1-c1nnc(-c2c(C)nn(-c3ccccc3)c2C)o1", "Potency": "active: 11.7 µM"}
{"smiles": "O=C(Nc1ccc(-c2nnc3n2CCCCC3)cc1)c1cc2ccccc2o1", "Potency": "inconclusive [inhibitor, single point]"}
{"smiles": "CCc1noc(C)c1C(=O)Nc1cc(S(=O)(=O)N2CCCCC2)ccc1N(C)C", "Potency": "inconclusive [inhibitor, single point]"}
{"smiles": "CC(C)CCn1cnc2c1c(=O)n(CC(=O)NC(N)=O)c(=O)n2Cc1ccccc1", "Potency": "inconclusive [inhibitor, full curve]"}
{"smiles": "O=C(CCCn1cncn1)N1CCCC(Nc2ccc(F)cc2)C1", "note": "(configuration not stated)", "Potency": "inactive"}
{"smiles": "Nn1c(SCC(=O)NCCc2ccc(F)cc2)nnc1C1CCCCC1", "Potency": "inconclusive [inhibitor, single point]"}
{"smiles": "CCNC(=S)N=Nc1c(O)[nH]c2ccc([N+](=O)[O-])cc12", "Potency": "inconclusive [inhibitor, single point]"}
{"smiles": "Nc1ccccc1CNc1nc(NCCO)nc2c1ncn2CCN1CCOCC1", "Potency": "inactive"}
{"smiles": "Clc1ccccc1-c1csc(Nc2cccnc2)n1", "Potency": "inconclusive [inhibitor, full curve, poor fit]"}
{"smiles": "COc1cc(/C=C2\\SC(=O)NC2=O)ccc1OCc1ccc(Cl)nc1", "Potency": "inconclusive [inhibitor, partial curve]"}
{"smiles": "Cc1cccc(C(=O)N[C@H](C(=O)Nc2nccs2)C(C)C)c1", "Potency": "inconclusive [inhibitor, partial curve, poor fit]"}
{"smiles": "Cc1cc(C)c(C#N)c(SCCS(=O)(=O)c2ccc(C(C)(C)C)cc2)n1", "Potency": "active: 7.38 µM"}
{"smiles": "Cc1cccc2cc(CN(Cc3ccco3)C(=O)c3ccco3)c(=O)[nH]c12", "Potency": "inactive"}
{"smiles": "Cc1cc2oc(=O)cc(-c3cc4ccccc4o3)c2cc1O", "Potency": "active: 7.38 µM"}
{"smiles": "CC1(C)Cc2c(c(-c3ccco3)nc3sc4c(NCCN5CCOCC5)ncnc4c23)CO1", "Potency": "active: 8.28 µM"}
{"smiles": "CCC(=O)NC(Nc1c(C)n(C)n(-c2ccccc2)c1=O)C(Cl)(Cl)Cl", "note": "(configuration not stated)", "Potency": "inactive"}
{"smiles": "O=C1NN=C(c2ccc(Cl)cc2)CC1c1cccc(Cl)c1", "note": "(configuration not stated)", "Potency": "inconclusive [inhibitor, single point]"}
{"smiles": "COc1cc(-c2nnn(CC(=O)NC3CCS(=O)(=O)C3)n2)ccc1OCc1ccccc1", "note": "(configuration not stated)", "Potency": "inactive"}
{"smiles": "CCN(CC)S(=O)(=O)c1cc(NC(=O)CCNC(=O)c2ccco2)ccc1C", "Potency": "active: 9.28 µM"}
{"smiles": "Cc1ccccc1NC(=O)Cc1nc(COC(=O)COc2cccc(C)c2C)cs1", "Potency": "inconclusive [inhibitor, single point]"}
{"smiles": "Cc1nn(C2CCS(=O)(=O)C2)c(C)c1CN(C)C(=O)c1cccc(Cl)c1", "note": "(configuration not stated)", "Potency": "inconclusive [inhibitor, single point]"}
{"smiles": "COc1cc(/C=C/C(=O)c2ccc(F)cc2)cc(OC)c1OC", "Potency": "inconclusive [inhibitor, single point]"}
{"smiles": "COc1cc(C(=O)Nc2nnc(SC)s2)c([N+](=O)[O-])cc1OC", "Potency": "inconclusive [inhibitor, full curve, poor fit]"}
{"smiles": "Cc1nn(-c2ccccc2)c(N2CCCC2)c1/C=N/NC(=O)c1cc(-c2cccs2)nc2ccccc12", "Potency": "inconclusive [inhibitor, partial curve]"}
{"smiles": "O=C(CN1C(=O)COc2ccccc21)NCc1ccc(C(=O)O)cc1", "Potency": "inconclusive [inhibitor, partial curve, poor fit]"}
{"smiles": "CCN(CC)c1ccc(/C=N/n2c(C)cc(C)cc2=O)cc1", "Potency": "active: 7.38 µM"}
{"smiles": "CCN1C(=O)C(=Cc2cccc(OC)c2Oc2ccc([N+](=O)[O-])cc2[N+](=O)[O-])SC1=S", "Potency": "active: 5.22 µM"}
{"smiles": "CCOC(=O)Cn1c(C)nc2ccccc21", "Potency": "inactive"}
{"smiles": "c1ccc(-c2nc3cc4ccccc4cc3[nH]2)nc1", "Potency": "inactive"}
{"smiles": "Cc1c(NC(=O)OCCNC(=O)COc2c(Cl)cccc2Cl)sc(=S)n1C", "Potency": "inconclusive [inhibitor, partial curve, poor fit]"}
{"smiles": "Cc1cc(OCC(F)(F)C(F)(F)C(F)(F)C(F)F)nc(N)n1", "Potency": "inconclusive [inhibitor, single point]"}
{"smiles": "COc1ccc(Cl)cc1N/C(N)=N/c1nc(C)cc(=O)[nH]1", "Potency": "inactive"}
{"smiles": "COc1cccc(/C=N/Nc2cc(-n3nc(C)cc3-c3ccccc3)ncn2)c1O", "Potency": "active: 5.86 µM"}
{"smiles": "C/C(=N/N1CCN(Cc2cccc3ccccc23)CC1)c1cccnc1", "Potency": "inconclusive [inhibitor, single point]"}
{"smiles": "CC(Nc1ccc(Br)cn1)c1cc(Cl)ccc1O", "note": "(configuration not stated)", "Potency": "inconclusive [inhibitor, partial curve]"}
{"smiles": "CCOc1ccc(CN(C)c2nc(-c3cccnc3)nc3ccccc23)cc1OC", "Potency": "active: 11.7 µM"}
{"smiles": "COC(=O)c1cc(C(=O)OC)cc(-n2c(C)cc(C(=O)CC#N)c2C)c1", "Potency": "active: 10.4 µM"}
{"smiles": "Cc1ccc(CNS(=O)(=O)c2ccc(C(F)(F)F)cc2)n1C", "Potency": "inconclusive [inhibitor, partial curve, poor fit]"}
{"smiles": "Cn1c(=O)c2c(nc(CN3CCc4ccccc4C3)n2Cc2ccccc2F)n(C)c1=O", "Potency": "active: 4.65 µM"}
{"smiles": "Cn1cccc1-c1nc2ccc(NC(=O)c3ccco3)cc2[nH]1", "Potency": "inactive"}
{"smiles": "O=C(c1cccc(F)c1)N1CCC(c2nc3ccccc3s2)CC1", "Potency": "inactive"}
{"smiles": "Nc1ccccc1-c1nnc2n1CCCCC2", "Potency": "inactive"}
{"smiles": "COc1cc2c(cc1OC)CN(CC(=O)Nc1ccccc1C(=O)NCc1ccccc1)CC2", "Potency": "active: 16.5 µM"}
{"smiles": "O=C(Nc1ccc(C(=O)N2CCC(N3CCCC3)CC2)cc1)c1ccc(Br)o1", "Potency": "inconclusive [inhibitor, single point]"}
{"smiles": "COc1ccc(S(=O)(=O)N2CCOC2CNC(=O)C(=O)NCCCc2ccccc2)cc1", "note": "(configuration not stated)", "Potency": "inconclusive [inhibitor, full curve, poor fit]"}
{"smiles": "O=C1CSC(c2ccc([N+](=O)[O-])cc2)N1C1CCCCC1", "note": "(configuration not stated)", "Potency": "inactive"}
{"smiles": "CCCc1cc(C(=O)Nc2cc(Br)ccc2O)no1", "Potency": "active: 5.22 µM"}
{"smiles": "Cc1n[nH]c(C)c1S(=O)(=O)N1CCCC(C(=O)NCc2ccccc2Cl)C1", "note": "(configuration not stated)", "Potency": "inconclusive [inhibitor, partial curve, poor fit]"}
{"smiles": "Cc1ccc(Oc2ccc(NC(=O)Cn3ccsc3=N)cc2)cc1", "Potency": "active: 10.4 µM"}
{"smiles": "Cc1ccc(CNC(=O)C2CCC(CNc3nc(=S)[nH]c4ccccc34)CC2)cc1", "note": "(configuration not stated)", "Potency": "inconclusive [inhibitor, partial curve]"}
{"smiles": "Cc1nn2c(NCc3ccccn3)cc(C(C)(C)C)nc2c1-c1ccccc1", "Potency": "active: 4.65 µM"}
{"smiles": "Cc1[nH]c2ccccc2c1CCN(Cc1cccs1)C(=S)Nc1ccccc1", "Potency": "inconclusive [inhibitor, single point]"}
{"smiles": "COc1ccc(NC(=O)Cn2c(=O)oc3cc(S(=O)(=O)N4CCCC4)ccc32)cc1", "Potency": "inconclusive [inhibitor, single point]"}
{"smiles": "O=C(Nc1cccc(F)c1)c1ccc(-c2ccccc2C(F)(F)F)o1", "Potency": "inconclusive [inhibitor, partial curve]"}
{"smiles": "C=CCSc1nc(=O)n2cccc(C)c2n1", "Potency": "inactive"}
{"smiles": "CCN(CC)S(=O)(=O)c1ccc(C(C)NC(=O)Cc2c[nH]c3ccccc23)cc1", "note": "(configuration not stated)", "Potency": "inconclusive [inhibitor, partial curve, poor fit]"}
{"smiles": "CCOC(=O)c1[nH]n(-c2ccc(Cl)cc2)c(=O)c1C", "Potency": "inconclusive [inhibitor, partial curve]"}
{"smiles": "C=CCOC(=O)C1=C(C)OC(N)=C(C#N)C1c1ccoc1", "note": "(configuration not stated)", "Potency": "inactive"}
{"smiles": "CCOC(=O)c1cccc(NC(=O)Cn2nc(C)n3cccc3c2=O)c1", "Potency": "inactive"}
{"smiles": "Cc1sc2nc(CN3CCCC3)nc(NCc3ccncc3)c2c1C", "Potency": "inconclusive [inhibitor, single point]"}
{"smiles": "COc1ccc(C(C)NC(=O)Cc2cccs2)cc1", "note": "(configuration not stated)", "Potency": "inactive"}
{"smiles": "O=C(NC(=S)NN1CCCCC1c1cccnc1)c1ccc(Cl)cc1Cl", "note": "(configuration not stated)", "Potency": "inconclusive [inhibitor, full curve, poor fit]"}
{"smiles": "CCOc1ccc(NC(=O)COC(=O)COc2cccc3c2OC(C)(C)C3)cc1", "Potency": "inconclusive [inhibitor, single point]"}
{"smiles": "O=S(=O)([O-])CCC[N+]1(CC#Cc2ccccc2)CCCCC1", "Potency": "inactive"}
{"smiles": "Cc1cc2[nH]c(=O)c(=O)[nH]c2cc1S(=O)(=O)N1CCN(c2cccc(C)c2C)CC1", "Potency": "inconclusive [inhibitor, partial curve, poor fit]"}
{"smiles": "CC(=O)Nc1ccc(NC(=O)c2ccc(CSc3ccccc3)o2)cc1", "Potency": "inconclusive [inhibitor, partial curve, poor fit]"}
{"smiles": "O=C1CCN(CCc2ccccc2)CCN1[C@H](CO)c1ccccc1", "Potency": "inconclusive [inhibitor, full curve]"}
{"smiles": "CCN1C(=O)C2(/C(=C(\\O)c3ccc4c(c3)OCCO4)C(=O)C(=O)N2CCCOC)c2ccccc21", "note": "(configuration not stated)", "Potency": "inconclusive [inhibitor, partial curve, poor fit]"}
{"smiles": "COCCn1nnnc1SCC(=O)Nc1ccc2c(c1)OCO2", "Potency": "inactive"}
